Measured values reported in PubChem BioAssay AID485344 (National Center for Advancing Translational Sciences (NCATS), 2010).
About 6,900 (2%) of roughly 340,000 compounds were called active. Cut-off read from the data, not from the text of the source: active = inhibition above about 30%; inactive = below that, where a call was filed. This is a selection; strong and weak results do not stand in their true shares. Where no call is shown, the source filed none.

target: D(2) dopamine receptor (Homo sapiens) (UniProt P14416); experiment: HTS Assay for Allosteric Antagonists of the Human D2 Dopamine Receptor: Primary Screen for Antagonists; details: HEK293 TREx D2 cells, calcium flux, dopamine EC80; at 10 µM; stronger effect = higher value; note: 0% is about no effect
Chain of UniProt P14416 (P14416 whole entry, looked up): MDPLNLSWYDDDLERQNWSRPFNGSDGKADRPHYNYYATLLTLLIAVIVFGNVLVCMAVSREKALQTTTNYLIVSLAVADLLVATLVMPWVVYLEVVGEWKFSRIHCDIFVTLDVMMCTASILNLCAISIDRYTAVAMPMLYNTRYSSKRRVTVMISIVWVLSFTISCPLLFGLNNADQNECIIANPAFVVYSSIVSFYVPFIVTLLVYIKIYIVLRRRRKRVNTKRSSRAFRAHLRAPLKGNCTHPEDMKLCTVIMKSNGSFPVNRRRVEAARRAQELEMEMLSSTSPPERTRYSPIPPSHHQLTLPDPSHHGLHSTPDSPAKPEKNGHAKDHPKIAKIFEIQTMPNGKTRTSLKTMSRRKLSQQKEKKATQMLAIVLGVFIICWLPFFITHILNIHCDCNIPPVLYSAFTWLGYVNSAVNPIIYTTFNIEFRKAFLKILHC
In short: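 Calcium flux kinetic readout in an inducible HEK293 TREx D2 line plated overnight at 30 C. After 180 s compound exposure, an EC80 dopamine challenge follows with another 180 s kinetic read to detect antagonism.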

| SMILES | inhibition |
| --- | --- |
| COc1ccc(C2c3cc(OC)c(OC)cc3CC(=O)N2c2ccc(C)c(F)c2)cc1 (stereo unspecified) | 4.39% |
| COc1ccccc1CNC(=O)CCn1c(=O)c2cccn2c2cccnc21 | -21.4% |
| CCCN1Cc2cccc(C(=O)Nc3cccc(C(=O)OCC)c3)c2C1=O | -13.6% |
| CCC1Oc2ccc(Cl)cc2N(CC(=O)NCCc2ccc(Cl)cc2)C1=O (stereo unspecified) | 0.321% |
| COCCNc1nc(NCc2cccc(Cl)c2)c2cnn(C)c2n1 | 7.26% |
| COc1ccc(/C=C/C(=O)Nc2ccc3nc(N4CCC(C)CC4)cc(C)c3c2)cc1 | -0.865% |
| CCc1cccc(C)c1NC(=O)Cn1nc(C)c2nn(-c3ccc(Cl)cc3)c(C)c2c1=O | 10.1% |
| CCN(c1ccccc1)S(=O)(=O)c1c(-c2ccc(C)cc2)csc1C(=O)OC | 3.93% |
| COc1ccc2c(c1)cc1c(=O)n(CC(=O)NC3CC3)nc(C)n12 | -0.0753% |
| COc1ccccc1C(=O)Nc1ccc2oc(-c3cccc4c(Br)cccc34)nc2c1 | 3.56% |
| CC1=C(c2ccc(C(C)C)cc2)S(=O)(=O)N=C1N1CCC(C(=O)NCCc2ccco2)CC1 | 24% |
| COc1cccc(-c2nc(SCC(=O)NC3CCCC3)c(-c3ccc(C)cc3)[nH]2)c1 | 14% |
| Cc1ccc(CNC(=O)c2ccc3nc(SCc4ccc(F)cc4)[nH]c3c2)cc1 | 19.6% |
| CCN(CC)C(=O)CSc1nc(-c2ccc(C)cc2)nc2c1Cc1c(CO)cnc(C)c1O2 | 5.36% |
| CCc1cccc(NC(=O)C(Cc2ccccc2)n2cccc2)c1 (stereo unspecified) | 1.63% |
| CCOc1ccc(CNC(=O)c2ccc3c(c2)nc2n3CCOC2)cc1OC | 18.9% |
| Cc1ccc(C(=O)Nc2c(C)nc3ccccn3c2=O)cc1C | 4.28% |
| COc1ccc(N2CC(NC(=O)c3ccc(S(=O)(=O)N4CCCCC4)cc3)CC2=O)cc1 (stereo unspecified) | 1.45% |
| CCc1ccc(NC(=O)CN(c2cc(C)cc(C)c2)S(=O)(=O)c2c(C)[nH]c(=O)[nH]c2=O)cc1 | -0.519% |
| Cc1ccsc1C(C(=O)NCc1ccccc1)N(C(=O)c1csnn1)c1ccccc1 (stereo unspecified) | active: 33% |
| CCCOc1cccc(C(=O)Nc2cc(-c3ccccc3)no2)c1 | -2.22% |
| CC1=C(C(=O)Nc2ccc(F)cc2F)C2(CCN(C(C)C)CC2)OC1=O | 9.52% |
| CC(=O)Nc1ccccc1-c1nc2ccccc2n(CC(=O)Nc2cccc(C(F)(F)F)c2)c1=O | 23.8% |
| CC(=O)c1cccc(NC(=O)CSc2nc3ccccc3nc2Cc2ccc(F)cc2)c1 | 11.7% |

| SMILES | inhibition |
| --- | --- |
| COc1ccc(/C=C/C(=O)Nc2nc(-c3cccs3)ns2)cc1OC | -18.9% |
| CCOc1cccc2cc(S(=O)(=O)c3ccccc3F)c(=O)oc12 | -6.16% |
| CCS(=O)(=O)N1CC(=O)N(c2ccc(Cl)cc2)C(C)(C(=O)NC2CCCCC2)C1 (stereo unspecified) | -8.82% |
| Cc1ccc(CO)cc1Nc1ncnc2onc(-c3ccc(F)cc3)c12 | -6.17% |
| Cc1cccc(NC(=O)CCS(=O)(=O)c2cc(Br)cc3c2N(C(=O)C2CC2)CC3)c1 | 7.47% |
| Cc1ccc(CNC(=O)CC2Oc3ccc(Cl)cc3NC2=O)cc1 (stereo unspecified) | 1.06% |
| CCc1ccc(S(=O)(=O)Nc2cccc(-c3ccc(N4CCOCC4)nn3)c2)cc1 | 18.1% |
| CCn1c(CC(=O)Nc2ccccc2Cl)nnc1SCC(=O)NC1CCCC1 | active: 34.2% |
| CC(C)(C)c1ccc(C(=O)NCC(c2ccc(Cl)cc2)N2CCOCC2)cc1 (stereo unspecified) | -12.2% |
| CCOc1ccc(NS(=O)(=O)c2ccc3c4c(cccc24)C(=O)N3)cc1 | 6.03% |
| Cc1ccc(CN(Cc2ccco2)C(=O)COc2ccc(C)c(C)c2)cc1 | -5.64% |
| COc1ccc(OC)c(S(=O)(=O)Nc2cccc(-c3ccc(N4CCCCC4)nn3)c2)c1 | 6.63% |
| CC(C)(C)c1ccc(C(=O)Nc2onc3c2CCCC3)cc1 | 9.36% |
| CCN(CC)c1ccc(/C=C/C(=O)C2C(=O)C=C(C)OC2=O)cc1 (stereo unspecified) | active: 50.3% |
| Cc1sc(-c2cc3c([nH]c2=O)CC(c2ccccc2)CC3=O)nc1-c1ccc(Cl)cc1 (stereo unspecified) | -1.87% |
| Cc1c(C(=O)N2CCOCC2)oc2c1-c1nn(CC(=O)NCc3cccc(Cl)c3)cc1CC2 | 17.1% |
| COc1ccc(CCNC(=S)NC2CCN(Cc3ccccc3)CC2)cc1OC | active: 31.6% |
| CCCCS(=O)(=O)c1oc(-c2ccc(F)cc2)nc1S(=O)(=O)c1ccc(C)cc1 | -4.04% |
| O=C(NCc1cccc(F)c1)c1ccc(NC(=O)c2nsc3ccccc23)cc1 | -14.7% |
| COc1ccc(-c2c(C)c3ccc(O)c(CN4CCN(CCO)CC4)c3oc2=O)cc1OC | -1% |
| Cc1ccc(CCNC(=O)c2c(C)oc3ncn(CC(C)C)c(=O)c23)cc1 | 0.195% |
| CC(C)(C)OC(=O)N1CCC(c2c(C(=O)NCCc3ccccc3)cnn2-c2ccc(F)cc2F)CC1 | -5.8% |
| COc1cc(Cl)c(C)cc1NC(=O)CC(c1ccc(F)cc1)N1Cc2ccccc2C1=O (stereo unspecified) | 5.81% |
| Cn1c(=O)oc2cc(S(=O)(=O)N3CCC(C(=O)N4CCN(c5ccccc5F)CC4)CC3)ccc21 | 3.1% |

| SMILES | inhibition |
| --- | --- |
| CCOC(=O)c1c(NC(=O)COc2cccc(C)c2C)sc2c1CCC(CC)C2 (stereo unspecified) | -1.11% |
| Cc1ccc(/C=C/C(=O)Nc2ccccc2C(N)=O)o1 | 0.175% |
| COc1cccc(CNC(=O)c2cc(Sc3cccc(Cl)c3)nc3ccccc23)c1 | 6.19% |
| COc1ccccc1NC(=O)COc1ccc(-c2nn(C)c(=O)c3ccccc23)cc1 | 2.14% |
| CC(=O)N1c2ccc(S(=O)(=O)Nc3ccc(Cl)cc3C)cc2CC1C (stereo unspecified) | 18.6% |
| NC(=O)CSc1nc2ccccc2c(=O)n1-c1ccccc1 | active: 41.1% |
| CC1CC(C)CN(CCCNC(=O)CN2C(=O)CSc3ccc(S(=O)(=O)N4CCOCC4)cc32)C1 (stereo unspecified) | active: 40.2% |
| COc1ccc(N(CC(=O)N2CCN(c3ccc(F)cc3)CC2)S(=O)(=O)c2c(C)noc2C)cc1 | -3.37% |
| CN1\C(=C/C=C/C=C/C=[N+](C)C)C(C)(C)c2ccccc21 | active: 63% |
| O=C(NCc1ccco1)c1ccc2c(c1)N(Cc1ccc(F)cc1)C(=O)c1ccccc1S2(=O)=O | -7.21% |
| CC(C)(C)c1cc(C(F)(F)F)nc(SCCCNC(=O)c2ccco2)n1 | active: 35.6% |
| CC(=O)c1ccc(NC(=O)CN2CCN(c3ncccn3)CC2)cc1 | active: 77.4% |
| Cc1ccc(-c2nn(-c3ccccc3Cl)cc2C(=O)NCC2CCCO2)cc1 (stereo unspecified) | active: 30.9% |
| COc1cccc(N2CCN(S(=O)(=O)c3cc(-c4cc(C)no4)ccc3C)CC2)c1 | 5.33% |
| CC(C)COc1ccc(C(=O)Nc2cc(-c3ccccc3)no2)cc1 | 0.711% |
| O=c1c2cn[nH]c2nc(SCc2c(F)cccc2F)n1-c1ccc(Cl)cc1 | -15.7% |
| CCCCN(CC)CCCNC(=O)Cn1ncc2c([nH]c3ccc(C)cc32)c1=O | 17% |
| Cc1cc(NC(=O)CN2CCC(C)CC2)nc2c1c(=O)oc1ccccc12 | 7.34% |
| CCOC(=O)C(Cc1c[nH]c2ccccc12)NC(=O)COc1ccc(CC)cc1 (stereo unspecified) | 1.89% |
| Cc1ccc(Cl)cc1NC(=O)CN1C(=O)CCc2ccccc21 | -4.09% |
| CCCCNc1oc(-c2ccc(COc3ccc(OC)cc3)o2)nc1C#N | 3.22% |
| COc1ccc(C)cc1N(C)C(=O)CCc1nc(-c2ccccc2F)no1 | 9.76% |
| CCOC(=O)c1c(C)[nH]c(C)c1S(=O)(=O)N1CCC(C(=O)NCc2ccccc2Cl)CC1 | -7.82% |
| CN(C)c1ccc(Nc2ncnc3sc4c(c23)CCCC4)cc1 | -10.3% |

| SMILES | inhibition |
| --- | --- |
| COC(=O)c1ccccc1NC(=O)CCCn1c(=O)c2cccn2c2cccnc21 | 7.23% |
| COc1ccc(CC(=O)NCc2nc3cccnc3n2Cc2ccccc2)cc1 | 1.53% |
| COc1ccc(CCNC(=O)c2c(C)oc3ncn(C)c(=O)c23)c(OC)c1 | 1.18% |
| CC(=O)Nc1ccc(N(C(=O)Cn2nnc3ccccc32)C(C(=O)NCc2ccccc2)c2ccc(C)cc2)cc1 (stereo unspecified) | 16.7% |
| Cc1ccc2[nH]c(=O)c3cc(C(=O)NCCCN4CCC(C)CC4)sc3c2c1 | 16.6% |
| CCN(C(=O)CSc1nc2ccccc2n1Cc1ccc(F)cc1Cl)c1ccccc1 | -0.279% |
| O=C(Cn1ncn2c(cc3ccccc32)c1=O)NCc1ccc(F)cc1 | 3.44% |
| COc1ccc(F)cc1S(=O)(=O)Nc1cccc(-c2ccc(N3CCC(C)CC3)nn2)c1 | 5.23% |
| Cc1ccc(-c2cc(-c3ccccc3)c(C#N)c(SCC(O)CS(=O)(=O)Cc3ccccc3)n2)cc1 (stereo unspecified) | -15.1% |
| CC(=C1C(=O)c2ccccc2C1=O)N1CCN(c2ccccn2)CC1 | active: 56.1% |
| COc1ccc(Nc2ncnc3c2nc2n3CCCCC2)cc1 | 10% |
| CCCOc1ccc(CNC(=O)c2[nH]c3cc(OC)ccc3c2Sc2ccccc2)cc1 | 10.2% |
| Cc1noc(/C=C/c2ccccc2F)c1S(=O)(=O)N1CCC(C(=O)N2CCOc3ccccc32)CC1 | -15.8% |
| CCc1ccc(NC(=O)Cn2c(=O)n(CCC(=O)NCCc3ccc(Cl)cc3)c(=O)c3ccccc32)cc1 | -6.08% |
| COc1ccc(C)cc1NC(=O)Nc1cccc(-c2noc(C)n2)c1 | 23.8% |
| COc1ccccc1CCNC(=O)C(C)Sc1nc(-c2ccccc2)cc(C(F)(F)F)n1 (stereo unspecified) | -2.37% |
| COc1ccc(C(=O)Nc2nc(-c3nnn(-c4ccc(C(C)C)cc4)c3C)ns2)cc1 | 12.9% |
| CC(C)C(=O)NC(=S)Nc1ccc(S(=O)(=O)Nc2nccs2)cc1 | active: 39% |
| CC(=O)c1cccc(NS(=O)(=O)c2cc3c(cc2C)n(C)c(=O)c(=O)n3C)c1 | 2.76% |
| Cc1cccc(NC(=O)C(=O)NCC(c2ccc3c(c2)OCO3)N2CCN(c3ccccc3)CC2)c1 (stereo unspecified) | -10.3% |
| O=C(Nc1sc2c(c1C(=O)Nc1ccccc1)CCC2)c1ccc(Br)cc1 | 11.6% |
| CCOCCCNC(=O)C(c1ccccc1)N1Cc2ccccc2C1=O (stereo unspecified) | -3.69% |
| COc1ccc(S(=O)(=O)Nc2ccc(S(=O)(=O)Nc3nccs3)cc2)cc1 | active: 49.6% |
| O=C1C2CCCN2C(=O)N1CCCCN1CCN(c2ccc(F)cc2)CC1 (stereo unspecified) | active: 39.6% |
